In all, about 420,000 compounds went through this assay and about 50,000 (12%) were called active. This list was built around the results that the source calls inconclusive (neither active nor inactive); the mix of calls is not that of the screen. The call rests on the fitted dose curve; in most records, active means well fitted inhibition curve with a large enough effect; inconclusive means small, poorly fitted or top-dose-only effect; inactive means flat fitted curve, though single readings scatter. Potencies of inconclusive entries are left out as doubtful fits.
Assay: qHTS for Inhibitors of human tyrosyl-DNA phosphodiesterase 1 (TDP1): qHTS in cells in presence of CPT; further: nearly all actives have a fitted effect of over 55% in size
Conditions: chicken DT40 Tdp1-/-;hTDP1 cells + 20 nM CPT, ATP luminescence, 48 h; activity change, negative = growth inhibition: at 46.2 µM (top of the series) unless noted
In short: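 Cell growth measured by CellTiter-Glo luminescence after a minimum 48 h, 37 C compound exposure with 20 nM CPT in Tdp1-knockout DT40 cells stably expressing hTDP1, seeded 400/well; qHTS titration format.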
On the % scale 0 is the no-effect control and ±100 the full control effect; potency means the concentration at half of the fitted maximal effect; tags describe the fitted curve by direction and shape.

Row | SMILES | Potency | activity change, negative = growth inhibition
1 | COc1ccc(N(C(=O)C(C)C)S(=O)(=O)c2ccc3ccccc3c2)cc1 | active: 14.6 µM | –
2 | COc1ccccc1CNc1ncncc1-c1ccc2c(c1)OCO2 | inconclusive [inhibitor, single point] | –
3 | Cc1cccc(OCC(=O)NC(=S)NNC(=O)c2ccncc2)c1 | inconclusive [inhibitor, single point] | –
4 | COc1ccc(NC(=O)c2cccc(N3C(=O)C4C5CCC(C5)C4C3=O)c2)cc1 (centres undefined) | inconclusive [inhibitor, single point] | –
5 | O=C(CCN1CCC(c2cccs2)=N1)c1cccs1 | active: 5.8 µM | –
6 | O=C(Nc1ccc2oc(-c3ccccc3)nc2c1)c1ccco1 | inconclusive [inhibitor, single point] | –
7 | CC(C)CC(=O)Nc1ccc(C(=O)CN2C(=O)NC3(CCOc4ccccc43)C2=O)cc1 (centres undefined) | active: 18.4 µM | –
8 | Cc1ccc(N2CCN(C(=O)CNS(=O)(=O)c3ccc(Br)s3)CC2C)cc1 (centres undefined) | inconclusive [inhibitor, single point] | –
9 | c1ccc(Cn2c(CNc3nc4ccccc4n3CCN3CCOCC3)nc3ccccc32)cc1 | inconclusive [inhibitor, partial curve] | –
10 | CCOC(=O)c1cnc2ccc(C)cc2c1Nc1ccc(N(CC)CC)cc1 | active: 11.6 µM | –
11 | COc1ccc(CN(Cc2cccn2C)S(=O)(=O)c2ccc(C)cc2)cc1 | inconclusive [inhibitor, single point] | –
12 | O=C1NC(=S)N/C1=C/c1ccc2c(c1)OCO2 | inconclusive [inhibitor, partial curve] | –
13 | Cc1cccc(C(=O)NC2=NCCS2)c1 | – | inactive: -4.72%
14 | COc1ccccc1C(=O)N1[C@@H](C(C)C)COc2cc(Br)ccc2S1(=O)=O | inconclusive [inhibitor, single point] | –
15 | c1ccc2c(c1)[nH]c1c(NCC3CCCO3)ncnc12 (centres undefined) | inconclusive [inhibitor, single point] | –
16 | COc1cnn(C(C)(C)C)c(=O)c1Cl | – | inconclusive: -21% [inhibitor]
17 | COc1ccc(S(=O)(=O)N2CCCCC2)cc1NC(=O)CCCOc1ccc(C)cc1 | inconclusive [inhibitor, single point] | –
18 | CCCCCCCNC(=O)C1(CC2CC(c3cccc(Br)c3)=NO2)CCN(C(=O)Cc2ccc(F)cc2)CC1 (centres undefined) | inconclusive [inhibitor, single point] | –
19 | Cc1cc(=O)c2c([nH]1)c(C)cc1[nH]c(C)c(C)c12 | inconclusive [inhibitor, partial curve] | –

Reference: PubChem BioAssay AID686979 (National Center for Advancing Translational Sciences (NCATS), 2013)
